Assay results: the supplement of paper PMC8728848
The other results are listed elsewhere or left out.

Tests used:
Assay in all cases: glycan array binding signal (z-score within array); higher = stronger binding
Conditions in all cases: glycan notation: IUPAC condensed, linker removed
[1] = biological target: Gal(b1-3)GlcNAc(b1-2)Man(a1-3)[Gal(b1-3)GlcNAc(b1-2)Man(a1-6)]Man(b1-4)GlcNAc(b1-4)[Fuc(a1-6)]GlcNAc
Summary of the method: (§1)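 Glycan array data came from 3228 arrays in the Consortium for Functional Glycomics database, and only arrays with an available protein sequence were kept. Glycan names were put into IUPAC-condensed notation, and columns mapping to the same glycan were averaged. The binding signal is a within-array Z-score, averaged across arrays of one protein sequence run at different concentrations or buffers and across linkers. A negative Z-score can be read as non-binding.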

[2] = biological target: Gal(b1-3)GlcNAc(b1-2)Man(a1-3)[GlcNAc(b1-4)][Gal(b1-3)GlcNAc(b1-2)Man(a1-6)]Man(b1-4)GlcNAc(b1-4)GlcNAc
Summary of the method: as §1

[3] = biological target: Gal(b1-3)GlcNAc(b1-2)[Gal(b1-3)GlcNAc(b1-6)]Man(a1-6)[Gal(b1-3)GlcNAc(b1-2)Man(a1-3)]Man(b1-4)GlcNAc(b1-4)GlcNAc
Summary of the method: as §1

[4] = biological target: Gal(b1-3)GlcNAc(b1-3)Gal(b1-3)GlcNAc
Summary of the method: as §1

[5] = biological target: Gal(b1-3)GlcNAc(b1-3)Gal(b1-4)Glc
Summary of the method: as §1

[6] = biological target: Gal(b1-3)GlcNAc(b1-3)Gal(b1-4)GlcNAc
Summary of the method: as §1

[7] = biological target: Gal(b1-3)GlcNAc(b1-3)Gal(b1-4)GlcNAc(b1-2)Man(a1-3)[Gal(b1-3)GlcNAc(b1-3)Gal(b1-4)GlcNAc(b1-2)Man(a1-6)]Man(b1-4)GlcNAc(b1-4)GlcNAc
Summary of the method: as §1

[8] = biological target: Gal(b1-3)GlcNAc(b1-3)Gal(b1-4)GlcNAc(b1-2)[Gal(b1-3)GlcNAc(b1-3)Gal(b1-4)GlcNAc(b1-6)]Man(a1-6)[Gal(b1-3)GlcNAc(b1-3)Gal(b1-4)GlcNAc(b1-2)Man(a1-3)]Man(b1-4)GlcNAc(b1-4)[Fuc(a1-6)]GlcNAc
Summary of the method: as §1

[9] = biological target: Gal(b1-3)GlcNAc(b1-3)Gal(b1-4)GlcNAc(b1-3)Gal(b1-4)GlcNAc(b1-2)[Gal(b1-3)GlcNAc(b1-3)Gal(b1-4)GlcNAc(b1-3)Gal(b1-4)GlcNAc(b1-6)]Man(a1-6)[Gal(b1-3)GlcNAc(b1-3)Gal(b1-4)GlcNAc(b1-3)Gal(b1-4)GlcNAc(b1-2)Man(a1-3)]Man(b1-4)GlcNAc(b1-4)[Fuc(a1-6)]GlcNAc
Summary of the method: as §1

[10] = biological target: Gal(b1-3)GlcNAc(b1-3)Gal(b1-4)GlcNAc(b1-6)[Gal(b1-3)GlcNAc(b1-3)]Gal(b1-4)Glc
Summary of the method: as §1

[11] = biological target: Gal(b1-3)GlcNAc(b1-3)Gal(b1-4)[Fuc(a1-3)]GlcNAc
Summary of the method: as §1

[12] = biological target: Gal(b1-3)GlcNAc(b1-3)Gal(b1-4)[Fuc(a1-3)]GlcNAc(b1-6)[Gal(b1-3)GlcNAc(b1-3)]Gal(b1-4)Glc
Summary of the method: as §1

[13] = biological target: Gal(b1-3)GlcNAc(b1-3)GalNAc
Summary of the method: as §1

[14] = biological target: Gal(b1-3)GlcNAc(b1-6)Gal(b1-4)GlcNAc
Summary of the method: as §1

[15] = biological target: Gal(b1-3)GlcNAc(b1-6)GalNAc
Summary of the method: as §1

[16] = biological target: Gal(b1-3)GlcNAc(b1-6)[Gal(b1-3)]GalNAc
Summary of the method: as §1

[17] = biological target: Gal(b1-3)GlcNAc6S
Summary of the method: as §1

[18] = biological target: Gal(b1-3)[Fuc(a1-4)]GlcNAc
Summary of the method: as §1

[19] = biological target: Gal(b1-3)[Fuc(a1-4)]GlcNAc(b1-2)Man
Summary of the method: as §1

[20] = biological target: Gal(b1-3)[Fuc(a1-4)]GlcNAc(b1-2)Man(a1-3)[Gal(b1-3)[Fuc(a1-4)]GlcNAc(b1-2)Man(a1-6)]Man(b1-4)GlcNAc(b1-4)[Fuc(a1-6)]GlcNAc
Summary of the method: as §1

[21] = biological target: Gal(b1-3)[Fuc(a1-4)]GlcNAc(b1-3)Gal(b1-3)[Fuc(a1-4)]GlcNAc
Summary of the method: as §1

[22] = biological target: Gal(b1-3)[Fuc(a1-4)]GlcNAc(b1-3)Gal(b1-4)GlcNAc
Summary of the method: as §1

[23] = biological target: Gal(b1-3)[Fuc(a1-4)]GlcNAc(b1-3)Gal(b1-4)[Fuc(a1-3)]GlcNAc
Summary of the method: as §1

[24] = biological target: Gal(b1-3)[Fuc(a1-4)]GlcNAc(b1-6)GalNAc
Summary of the method: as §1

[25] = biological target: Gal(b1-3)[GlcNAc(b1-6)]GalNAc
Summary of the method: as §1

[26] = biological target: Gal(b1-3)[Neu5Ac(a2-6)]GalNAc
Summary of the method: as §1

[27] = biological target: Gal(b1-3)[Neu5Ac(a2-6)]GlcNAc(b1-4)Gal(b1-4)Glc
Summary of the method: as §1

[28] = biological target: Gal(b1-3)[Neu5Ac(b2-6)]GalNAc
Summary of the method: as §1

[29] = biological target: Gal(b1-4)Gal
Summary of the method: as §1

[30] = biological target: Gal(b1-4)GalNAc(a1-3)[Fuc(a1-2)]Gal(b1-4)GlcNAc
Summary of the method: as §1

[31] = biological target: Gal(b1-4)GalNAc(b1-3)[Fuc(a1-2)]Gal(b1-4)GlcNAc
Summary of the method: as §1

[32] = biological target: Gal(b1-4)Glc
Summary of the method: as §1

[33] = biological target: Gal(b1-4)Glc6S
Summary of the method: as §1

[34] = biological target: Gal(b1-4)GlcNAc
Summary of the method: as §1

[35] = biological target: Gal(b1-4)GlcNAc(a1-6)Gal(b1-4)GlcNAc
Summary of the method: as §1

[36] = biological target: Gal(b1-4)GlcNAc(b1-2)Man
Summary of the method: as §1

[37] = biological target: Gal(b1-4)GlcNAc(b1-2)Man(a1-3)Man(b1-4)GlcNAc(b1-4)GlcNAc
Summary of the method: as §1

[38] = biological target: Gal(b1-4)GlcNAc(b1-2)Man(a1-3)[Gal(b1-4)GlcNAc(b1-2)Man(a1-6)]Man(b1-4)GlcNAc(b1-4)GlcNAc
Summary of the method: as §1

[39] = biological target: Gal(b1-4)GlcNAc(b1-2)Man(a1-3)[Gal(b1-4)GlcNAc(b1-2)Man(a1-6)]Man(b1-4)GlcNAc(b1-4)[Fuc(a1-6)]GlcNAc
Summary of the method: as §1

[40] = biological target: Gal(b1-4)GlcNAc(b1-2)Man(a1-3)[Gal(b1-4)GlcNAc(b1-2)Man(a1-6)][Gal(b1-4)GlcNAc(b1-4)]Man(b1-4)GlcNAc(b1-4)[Fuc(a1-6)]GlcNAc
Summary of the method: as §1

[41] = biological target: Gal(b1-4)GlcNAc(b1-2)Man(a1-3)[Gal(b1-4)GlcNAc(b1-2)Man(a1-6)][GlcNAc(b1-4)]Man(b1-4)GlcNAc(b1-4)[Fuc(a1-6)]GlcNAc
Summary of the method: as §1

[42] = biological target: Gal(b1-4)GlcNAc(b1-2)Man(a1-3)[GlcNAc(b1-2)Man(a1-6)]Man(b1-4)GlcNAc(b1-4)GlcNAc
Summary of the method: as §1

[43] = biological target: Gal(b1-4)GlcNAc(b1-2)Man(a1-3)[GlcNAc(b1-4)][Gal(b1-4)GlcNAc(b1-2)Man(a1-6)]Man(b1-4)GlcNAc(b1-4)GlcNAc
Summary of the method: as §1

[44] = biological target: Gal(b1-4)GlcNAc(b1-2)Man(a1-3)[Man(a1-6)]Man(b1-4)GlcNAc(b1-4)GlcNAc
Summary of the method: as §1

[45] = biological target: Gal(b1-4)GlcNAc(b1-2)Man(a1-6)Man(b1-4)GlcNAc(b1-4)GlcNAc
Summary of the method: as §1

B1: Threefoil (Haloarcula marismortui) (protein)
chain: GSSHHHHHHHHHHSSGLVPRGSHMGDGYYKLVARHSGKALDVENASTSDGANVIQYSYSGGDNQQWRLVDLGDGYYKLVARHSGKALDVENASTSDGANVIQYSYSGGDNQQWRLVDLGDGYYKLVARHSGKALDVENASTSDGANVIQYSYSGGDNQQWRLVDL
- glycan array binding signal (z-score) [1]: -0.051
- glycan array binding signal (z-score) [2]: 0.108
- glycan array binding signal (z-score) [3]: 0.155
- glycan array binding signal (z-score) [4]: -0.266
- glycan array binding signal (z-score) [5]: -0.054
- glycan array binding signal (z-score) [6]: -0.043
- glycan array binding signal (z-score) [7]: 0.005
- glycan array binding signal (z-score) [8]: 0.362
- glycan array binding signal (z-score) [9]: 0.426
- glycan array binding signal (z-score) [10]: 0.046
- glycan array binding signal (z-score) [11]: 0.045
- glycan array binding signal (z-score) [12]: -0.11
- glycan array binding signal (z-score) [13]: -0.237
- glycan array binding signal (z-score) [14]: 0.14
- glycan array binding signal (z-score) [15]: -0.092
- glycan array binding signal (z-score) [16]: -0.215
- glycan array binding signal (z-score) [17]: -0.174
- glycan array binding signal (z-score) [18]: -0.21
- glycan array binding signal (z-score) [19]: -0.299
- glycan array binding signal (z-score) [20]: -0.14
- glycan array binding signal (z-score) [21]: -0.297
- glycan array binding signal (z-score) [22]: 0.307
- glycan array binding signal (z-score) [23]: -0.338
- glycan array binding signal (z-score) [24]: -0.181
- glycan array binding signal (z-score) [25]: -0.12
- glycan array binding signal (z-score) [26]: -0.243
- glycan array binding signal (z-score) [27]: -0.13
- glycan array binding signal (z-score) [28]: -0.229
- glycan array binding signal (z-score) [29]: -0.044
- glycan array binding signal (z-score) [30]: -0.048
- glycan array binding signal (z-score) [31]: -0.231
- glycan array binding signal (z-score) [32]: -0.183
- glycan array binding signal (z-score) [33]: -0.106
- glycan array binding signal (z-score) [34]: -0.15
- glycan array binding signal (z-score) [35]: 0.067
- glycan array binding signal (z-score) [36]: -0.105
- glycan array binding signal (z-score) [37]: -0.114
- glycan array binding signal (z-score) [38]: 0.603
- glycan array binding signal (z-score) [39]: 0.039
- glycan array binding signal (z-score) [40]: 0.858
- glycan array binding signal (z-score) [41]: 0.519
- glycan array binding signal (z-score) [42]: -0.142
- glycan array binding signal (z-score) [43]: 0.089
- glycan array binding signal (z-score) [44]: -0.079
- glycan array binding signal (z-score) [45]: -0.359
